The values that follow come from patent US20120271036A1 (UNIVERSITY OF ROCHESTER, published 2012).

This experiment deals with EloB([…])/EloC([…])/Vif([…]) (human; HIV-1 (group M, subtype B)). Kind of experiment: GST pull-down on glutathione resin, SDS-PAGE [panel D].

B1: GST alone (other)
chain: not shown
notes: also called glutathione-S-transferase
B1: the binding result is on record as “no binding”.
